This note sets out measurements from ChEMBL document CHEMBL4888484, “Replenishing the malaria drug discovery pipeline: Screening and hit evaluation of the MMV Hit Generation Library 1 (HGL1) against asexual blood stage Plasmodium falciparum ,using a nano luciferase reporter read-out” (2022).

As usually defined, the % Inhibition is the drop in the measured response relative to a control, in per cent.

About 420 (8.8%) of roughly 4,800 compounds showed an effect of 50% or more. Some of the results follow.

The test relates to Plasmodium falciparum. Nature of the test: Confirmatory screen in NF54 nanoGlo assay, in single point, at 2uM, 72h. The settings on record: timepoint 72 hour. The format is functional, Erythrocyte.
As for `CC1=C2CC(C3(N)CC4(CC4)NC3=O)C(O)CC2(C)CCC1` (stereo not given), the “% Inhibition” value is recorded as 1%.
The same measure for `Fc1cccc(F)c1-n1c(CN2CCCCC2)csc1=S`: -3%.
The figure for `CCN(CCC1CCN(C(=O)Nc2ccc(OC3CCOCC3)c(C)c2)CC1)CC(C)C` is -3%.
The same measure for `CC(C)c1ccc(Oc2cnn(-c3cccc(Cl)c3)c(=O)c2Nc2cccc(C(=O)NC3CC3)c2)cc1`: 48%; for `CC1(C)Oc2ccc(NC(=O)C3CCCCC3)cc2NC1=O`: 0%; for `CCOC(=O)Cc1csc(NC(=O)Cc2c[nH]c3ccccc23)n1`: -6%.
Consider `Cc1cc(C(=O)N2CC3CCCC3C2C(N)=O)c2c(C)noc2n1` (stereo not given), for which the “% Inhibition” value is -6%.
The same measure for `CN(C)CC(O)COc1ccc(S(=O)(=O)c2ccc(OCC(O)CN(C)C)c(Cl)c2)cc1Cl` (stereo not given): 45%; for `Cc1cc(Br)ccc1CN(C)S(C)(=O)=O`: -9%.
In the case of `O=C(CCCc1ccc2c(c1)CC(=O)N2)Nc1ccc2c(c1)C(=O)NC2`, the “% Inhibition” value is reported as -6%.
As for `CCn1c(=O)c(N2CCN(C(=O)Nc3ccccc3Cl)CC2)nc2ccccc21`, the “% Inhibition” value is listed as -6%.
With `Cc1cc(F)ccc1-n1ccc(C(=O)N(C[C@H]2CCOC2)C2CC2)n1`, the “% Inhibition” value was -7%.
The same measure for `CCN(CC)c1ccc(NS(=O)(=O)c2cc(S(=O)(=O)c3ccc(Cl)c(S(=O)(=O)Nc4ccc(N(CC)CC)cc4)c3)ccc2Cl)cc1`: 0%; for `Cc1ccc(-c2ccnn2C)cc1NC(=O)c1cscn1`: 1%; for `CC1=N[C@H](N2CCN(c3ccccc3)CC2)NC(O)=C1`: -12%.
The figure for `C[C@@H](C1CC1)N(C)S(=O)(=O)Cc1cc(Cl)cc(Cl)c1` is -3%; for `CCOn1c(-c2ccc(F)cc2)nc2c1OC=NN2OCc1ccccc1` it is 0%.
Turning to `CCNC(=O)N[C@H]1CO[C@H]2[C@@H]1OC[C@@H]2Nc1nccc(-c2ccc(-c3ccccc3)cc2)n1`, the “% Inhibition” value worked out at 2%.
The same measure for `COc1ccc(C(=O)Nc2c(C)nc3ncnn3c2O)cc1`: -2%.
The same measure for `O=C(c1ccc2c(c1)OCCCO2)N1CCCCC1`: -3%; for `CCCCNC(=O)Cc1noc([C@@H]2Cc3ccccc3O2)n1`: -11%.
Regarding `Cc1c(C2CC2)n[nH]c1NC(=O)C1CC1c1ccccc1` (stereo not given), the “% Inhibition” value is -1%.
The figure for `CCOC(=O)C(C)NC(=O)C(C)NC(=O)c1ccc(F)c(C#N)c1` (stereo not given) is -4%.
Consider `O=C(Nc1nc(Cc2ccccc2)cs1)C1CCOCC1`, for which the “% Inhibition” value is given as 2%.
The figure for `NC(=O)C1(CNC(=O)c2cccn3c(=O)[nH]nc23)CCCC1` is -6%.
The figure for `CN(CCCNC(=O)C(=O)Nc1ccn(C)n1)c1cccc(F)c1` is 0%; for `CC(C)(C)NC(=O)C1CCN(C[C@@H]2CC=CCC2)CC1` it is 5%.
The figure for `Cc1ccc(C(=O)NC2c3ccccc3CCC2n2ccnc2)c(=O)[nH]1` (stereo not given) is -2%; for `Cc1ccc(N2C(=O)C3C4C=CC(C4=C4CCCC4)C3C2=O)c(C)c1` (stereo not given) it is -5%; for `CC1CC(C)(C)CCC1NC(=O)NC1CCN(C)C1=O` (stereo not given) it is -4%.
On to `CC(C)(NC(=O)OCc1ccccc1)/C(N)=N/O`, for which the “% Inhibition” value is recorded as 2%.
The same measure for `CCc1ccc(C2CCN(C(C(=O)O)c3cccnc3)C2)cc1` (stereo not given): 1%; for `Cc1ccc(S(=O)(=O)Cc2nc(-c3ccc(C(=O)NCc4ccccc4C)cc3)oc2C)cc1`: -13%; for `CCN1CCC(N(C)C(=O)Cc2csc(-c3cccnc3)n2)CC1`: -7%.
Turning to `O=C(Nc1ccccc1)Nc1nnc[nH]1`, the “% Inhibition” value is recorded as -6%.
The same measure for `COCc1cc(=O)n(CC(=O)Nc2ccc(OC)cc2)c(N2CCCC2)n1`: -2%; for `Cc1ccc(NC(=O)c2nnn(CC(=O)Nc3ccc4c(c3)OCO4)c2C)cc1F`: 0%; for `Clc1ccc(-c2noc(CN(Cc3cccs3)Cc3cccs3)n2)cc1`: -4%.
The same measure for `O=C(NCc1ncc[nH]1)C1(Cc2nc3ccccc3[nH]2)CCCC1`: -8%; for `O=C(CCn1nc(-c2ccc3c(c2)OCO3)ccc1=O)NC1CCCCC1`: -10%.
The figure for `COc1ccccc1Nc1c(-c2cccs2)nc2ccccn12` is -2%; for `COCCN1CCCCc2cc(C(=O)NC[C@H]3CCN(CC(C)C)C3)sc21` it is -9%.
On to `CC(=O)c1ccc(C(C)(C)C)cc1NC(=O)C(C)C`, for which the “% Inhibition” value was -2%.
The figure for `Cc1cc(NC(=O)Nc2ccccc2)c2[nH]c(C(=O)NCCN3CCOCC3)c(-c3ccccc3)c2c1` is -3%.
For `CC(=O)N1C[C@H]2CN(C(=O)Cc3cccc(Cl)c3)CC[C@@]2(c2nc(C)n[nH]2)C1`, the “% Inhibition” value is -5%.
The same measure for `c1ccc(C[C@]2(c3ccccc3)CCNC2)cc1`: 1%; for `COc1cccc(Cn2c(=O)c3sccc3n(CC(=O)Nc3ccc(N(C)C)cc3)c2=O)c1`: 14%; for `COc1cccc(N2CCN(C(=O)C3CCN(c4nc5cccnc5n(C)c4=O)CC3)CC2)c1`: -17%.
The same measure for `O=C(COC(=O)c1nccc2ccccc12)Nc1cc(F)ccc1Cl`: -1%.
Take `O=C(NCC1CCCCC1)c1cn[nH]c1-c1ccccc1`: the “% Inhibition” value is given as -4%.
The figure for `Cc1ccc([C@@H]2c3cccn3CCCN2Cc2cccs2)cc1C` is 10%.
The same measure for `COc1cccc([C@H]2CC(=O)Nc3c2cnn3C)c1`: -8%; for `Cc1nc2c(-c3ccco3)nc(=O)n(CC(=O)Nc3cccc4ccccc34)c2s1`: -8%.
The same measure for `COc1cc(Br)cc(C#N)c1O`: 14%; for `Cc1ccc(S(=O)(=O)N2CCN(C(=O)CCn3cncn3)CC2)cc1`: -17%.
With `Cc1ccnc2nc(C(=O)N(CC3CC3)CC(F)(F)F)nn12`, the “% Inhibition” value is listed as -2%.
The figure for `Cc1cc(OC[C@@H](O)CNC(C)(C)CC(C)(C)C)cc(C)c1Cl` is 67%.
The same measure for `CC(=O)N[C@H]1CCc2nc(N)sc2C1`: 3%; for `COC[C@H]1CCCN1C(=O)C[C@@H]1O[C@H](CNC(=O)Nc2ccccc2)[C@@H](O)[C@H]1O`: -6%.
In the case of `Cc1nc(C)c(C(=O)N[C@](C)(c2ccc(Br)cc2)C(C)C)o1`, the “% Inhibition” value was -13%.
The figure for `CCC[C@]1(C)NC(=O)N(c2csc(-c3ccccc3)n2)C1=O` is -3%; for `Fc1cccc(F)c1CNC[C@@H]1NCCc2ccccc21` it is -5%; for `COc1ccc(OCC(=O)Nc2ccc(N3CCn4c(nc5ccccc54)C3)cc2Cl)cc1` it is -8%.
On to `CN(C)c1ccc(NC(=O)Cn2cnc3ccc(Cl)cc3c2=O)cc1`, for which the “% Inhibition” value is given as -7%.
The same measure for `COc1cc2c(cc1OC)CN(c1noc(-c3ccccc3)n1)CC2`: -5%.
